Experimental findings from article PMC4049815 are described below.

The chains behind the UniProt entries cited, without tags or fusion partners.
UniProt P02340: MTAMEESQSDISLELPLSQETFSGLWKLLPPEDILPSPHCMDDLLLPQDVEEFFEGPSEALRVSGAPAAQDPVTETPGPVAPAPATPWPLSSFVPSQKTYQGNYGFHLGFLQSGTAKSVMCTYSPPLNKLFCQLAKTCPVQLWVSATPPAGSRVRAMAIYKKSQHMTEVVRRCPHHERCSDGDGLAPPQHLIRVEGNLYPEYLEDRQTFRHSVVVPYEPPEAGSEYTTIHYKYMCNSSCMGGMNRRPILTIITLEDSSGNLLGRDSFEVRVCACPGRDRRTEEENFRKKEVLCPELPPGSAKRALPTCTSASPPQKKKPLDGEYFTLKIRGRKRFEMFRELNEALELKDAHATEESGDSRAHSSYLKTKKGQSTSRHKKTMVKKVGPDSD

Results are given in words; binding and its absence hold for the method and conditions named. Binding seen in cells or lysates may run through a third protein. Some entries that bind do so weakly or less than the wild type. Where a sequence is shown, tags or fusion partners need not be part of it.

Assay in all cases: co-IP; HEK293A cells co-transfected with untagged necdin (FL or ΔH4/5) and Myc-tagged PIAS1 forms or p53; lysates precipitated and blotted with antibodies to Myc and necdin (Fig. 7B: IP anti-necdin, blot anti-Myc)
Assay [1] addresses T1, necdin (full-length, untagged) (mouse) (UniProt P25233).
T1 sequence: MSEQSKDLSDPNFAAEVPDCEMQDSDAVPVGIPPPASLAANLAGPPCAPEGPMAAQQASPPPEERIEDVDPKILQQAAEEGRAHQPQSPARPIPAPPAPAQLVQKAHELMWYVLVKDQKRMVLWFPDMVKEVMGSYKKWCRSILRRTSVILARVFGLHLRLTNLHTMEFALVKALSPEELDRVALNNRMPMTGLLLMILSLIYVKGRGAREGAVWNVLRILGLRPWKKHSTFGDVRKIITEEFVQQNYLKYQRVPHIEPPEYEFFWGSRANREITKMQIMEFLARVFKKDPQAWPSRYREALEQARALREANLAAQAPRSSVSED

The next assay concerns the target Myc-p53 (mouse) (UniProt P02340).
Assay [2] addresses Myc-tagged PIAS1 (full-length) (mouse) (UniProt O88907).
For assay [3], the target named is T2, Myc-tagged PIAS1 aa 1-100 (NT) (mouse) (UniProt O88907).
T2 sequence: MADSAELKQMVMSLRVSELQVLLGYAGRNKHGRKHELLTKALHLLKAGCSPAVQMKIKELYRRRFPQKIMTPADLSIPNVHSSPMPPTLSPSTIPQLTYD

In assay [4] the target is T3, Myc-tagged PIAS1 aa 101-300 (PD) (mouse) (UniProt O88907).
T3 sequence: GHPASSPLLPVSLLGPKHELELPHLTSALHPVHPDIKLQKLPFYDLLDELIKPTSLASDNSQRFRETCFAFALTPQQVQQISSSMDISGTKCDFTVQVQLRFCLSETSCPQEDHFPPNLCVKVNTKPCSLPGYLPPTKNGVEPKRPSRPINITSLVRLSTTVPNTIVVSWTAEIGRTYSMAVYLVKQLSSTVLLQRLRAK

Assay [5] deals with Myc-tagged PIAS1 aa 301-400 (SR) (mouse) (UniProt O88907).
Assay [6] concerns the target T4, Myc-tagged PIAS1 aa 401-651 (CT) (mouse) (UniProt O88907).
T4 sequence: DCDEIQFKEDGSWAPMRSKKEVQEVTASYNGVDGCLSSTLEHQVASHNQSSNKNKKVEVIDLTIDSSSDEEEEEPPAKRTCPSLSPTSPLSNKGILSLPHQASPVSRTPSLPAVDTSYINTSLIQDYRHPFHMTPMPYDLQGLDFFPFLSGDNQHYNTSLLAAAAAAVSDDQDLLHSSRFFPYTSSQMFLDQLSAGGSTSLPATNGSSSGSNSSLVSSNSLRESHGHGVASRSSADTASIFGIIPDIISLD

Regarding “Myc-tagged PIAS1 aa 301-400 (SR) (from UniProt O88907 301-400) (domain or fragment)”, in assay [1], the binding result is given as “binds”.
Regarding “Myc-tagged PIAS1 ΔCT (aa 1-400) (from UniProt O88907 1-400) (domain or fragment)”, the binding entry in assay [1] is listed as “binds”.
The same measure, in the same setting: next, “Myc-tagged PIAS1 ΔNT (aa 101-652) (from UniProt O88907 101-651) (domain or fragment)”: “binds”.

B1: Myc-tagged PIAS1 aa 101-300 (PD) (domain or fragment, UniProt O88907 101-300)
chain: T3 sequence
Take B1: the binding result in assay [1] was “binds”.

B2: necdin (full-length, untagged) (protein, UniProt P25233 1-325)
chain: T1 sequence
On to B2, for which the binding entry with Myc-p53 (mouse) is recorded as “binds”; in assay [2] it was “binds”; in assay [3] it was “no binding”; in assay [4] it was “binds”; in assay [5], “binds”; in assay [6], “no binding”.
